# In the supplement of paper PMC12217912:
# The list shows a part of the results. The full chains were built here from the parent and the listed change. Inactive controls read about 0.05.
# B1: TEV protease; numbered along this chain (parent)
# chain: MGESLFKGPRDYNPISSSICHLTNESDGHTTSLYGIGFGPFIITNKHLFRRNNGTLVVQSLHGVFKVKDTTTLQQHLVDGRDMIIIRMPKDFPPFPQKLKFREPQREERICLVTTNFQTKSMSSMVSDTSCTFPSGDGIFWKHWIQTKDGQCGSPLVSTRDGFIVGIHSASNFTNTNNYFTSVPKNFMELLTNQEAQQWVSGWRLNADSVLWGGHKVFMVKPEEPFQPVKEATQL
# Variants of: B1
# Assay: raw area under fraction-flipped curve 0-4 h after induction (AUC4h, not background-subtracted), DNA-recorder readout of cleavage of the substrate (dimensionless); higher = more cleavage of the substrate by the protease variant
# Details: temperature: 34 °C; time window: 0-4 h after rhamnose induction
# Procedure: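 In vivo DNA recorder in E. coli TOP10(DE3) ΔrhaA at 34 °C. Each TEVp single-site mutant (parent TEVp 0) is paired with a single-site variant of the 7-mer TEVs (canonical ENLYFQ|S). The substrate sits between flexible linkers in a Bxb1-sfGFP-TEVs-SsrA fusion, so cleavage stabilises Bxb1 and speeds flipping of a recombination array, read by NGS. The value is the raw area under the fraction-flipped curve over 0-4 h after rhamnose induction (AUC4h), with ≥20 reads per time point. It is not background-subtracted; inactive controls average about 0.047.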
# 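Also: Bxb1 expression induced with 0.2% (w/v) L-rhamnose at OD600 near 0.5, cultures sampled hourly, flipped fraction per protease–substrate barcode pair counted by paired-end Illumina sequencing.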
Variant,area with substrate ENLYFQA,area with substrate ENLYFQC,area with substrate ENLYFQD,area with substrate ENLYFQF,area with substrate ENLYFQH,area with substrate ENLYFQL,area with substrate ENLYFQM,area with substrate ENLYFQN,area with substrate ENLYFQP,area with substrate ENLYFQQ
V113K,0.0591,0.0772,0.0544,0.0577,0.0609,0.0511,0.0567,0.0764,0.06,0.0646
V113Y,0.129,–,–,–,0.0737,0.0632,0.0782,0.117,0.0645,–
T176Q,0.072,–,0.0753,–,–,–,0.0705,–,0.0623,–
D137T,0.117,0.0695,–,–,–,–,–,–,0.0447,–
D137Q,0.0878,–,0.0905,–,0.0652,–,–,0.0775,0.047,0.0704
D137A,0.101,0.105,0.0662,–,–,–,–,0.0809,–,–
N186H,0.0889,–,–,–,–,–,–,–,–,–
N186T,0.0973,–,–,–,0.0793,0.0585,–,0.0858,–,–
T174G,0.0996,–,0.0263,–,–,0.0652,0.0692,–,0.0557,0.0675
N177Q,0.0931,–,–,–,–,–,–,0.0653,–,–
N177M,0.114,0.127,0.0836,–,0.0886,0.0768,0.0851,0.0881,0.0578,–
G153T,0.0613,0.0372,–,–,–,0.053,–,0.0452,–,–
G153I,0.0528,0.0496,–,0.0556,–,0.0448,0.0528,–,–,–
G153M,0.0352,0.0452,–,–,–,0.0499,0.0811,0.0468,–,–
G153C,0.0451,0.0528,–,–,0.0565,0.0939,0.0542,0.0617,0.0323,0.0473
D161G,0.0972,0.09,–,0.0537,–,0.0326,0.0715,0.0653,–,–
A170R,0.061,–,0.0492,–,–,0.0524,–,0.0612,–,–
A170Q,0.0513,–,–,–,–,0.0404,–,–,–,–
A170S,0.0666,0.0706,–,0.0697,–,–,–,–,–,–

Variant,area with substrate ENLYFQA,area with substrate ENLYFQC,area with substrate ENLYFQD,area with substrate ENLYFQF,area with substrate ENLYFQH,area with substrate ENLYFQL,area with substrate ENLYFQM,area with substrate ENLYFQN,area with substrate ENLYFQP,area with substrate ENLYFQQ
A170I,0.0595,–,–,–,–,0.0528,–,–,–,–
A170K,0.0613,0.0591,–,–,0.0545,–,–,0.0569,–,–
A196V,0.0748,–,–,0.0873,–,0.0832,–,0.0995,0.0376,–
V165L,0.11,–,–,0.0508,–,0.0634,–,0.0714,0.0387,–
G162N,0.0947,–,–,–,–,–,0.0947,–,–,–
Q118C,0.0308,–,–,–,–,0.0559,–,0.0825,–,–
T159V,0.0901,0.127,0.0725,–,–,–,0.108,–,0.056,–
T115Q,0.123,0.14,–,0.084,0.0983,0.0613,0.0518,–,0.0415,0.0791
T115R,0.153,0.114,–,–,–,0.07,0.119,–,0.0558,–
R109K,0.0872,–,–,–,0.0809,0.063,–,–,–,–
R109Y,0.104,–,–,–,–,–,0.0798,–,–,–
G138W,0.0681,0.158,0.0595,–,–,–,0.0689,0.0708,–,–
G138F,0.0851,–,–,–,–,0.0085,–,–,–,–
G138M,0.0757,0.0747,–,–,–,–,0.0673,–,–,–
T129K,0.101,0.109,–,–,–,0.0586,–,0.0698,–,–
S135H,0.0622,0.0632,0.064,0.05,0.0666,0.0636,0.0493,0.0705,–,–
F163N,0.0995,–,–,0.0881,0.0772,–,–,–,–,–
T114L,0.0983,0.104,–,0.07,0.0877,0.0683,0.0801,–,0.0525,0.0894
E189L,0.108,0.112,0.0649,0.0813,–,0.0701,0.0906,0.052,–,–

# Same assay, conditions: temperature: 34 °C; time window: 0-4 h after rhamnose induction
Variant,area with substrate ENLYFQR,area with substrate ENLYFQS,area with substrate ENLYFQT,area with substrate ENLYFQI,area with substrate ENLYFQW,area with substrate ENLYFQG,area with substrate ENLYFQK,area with substrate ENLYFQY,area with substrate ENLYFQE,area with substrate ENLYFQV
V113K,0.0609,0.0663,0.0505,–,–,–,–,–,–,–
V113Y,0.063,0.0991,–,0.0693,0.0597,–,–,–,–,–
T176Q,–,0.0785,0.0412,0.054,–,0.0715,0.0515,0.0763,–,–
D137T,–,0.106,0.0631,–,–,–,–,–,–,–
D137Q,0.0467,0.0986,–,0.0677,0.0563,0.114,0.0703,–,–,–
D137A,0.0675,0.0923,–,0.057,0.0577,0.0844,–,0.0693,–,–
N186H,–,0.0959,–,–,–,–,–,–,–,–
N186T,–,0.105,–,0.0566,0.0728,–,–,0.0626,–,–
T174G,0.0703,0.0845,0.0657,0.0584,0.0722,0.0687,0.0649,–,–,–
N177Q,–,0.123,0.0544,–,–,0.0985,0.0604,–,–,–
N177M,–,0.118,–,0.0607,0.0632,0.156,–,0.101,–,–
G153T,0.0469,0.0464,–,–,–,0.0556,0.0632,–,–,–
G153I,0.0456,0.0488,0.0564,–,0.0369,–,–,0.0414,–,–
G153M,0.0687,0.0508,–,0.0465,–,–,0.0434,–,0.0651,0.0656
G153C,–,0.0561,–,–,–,0.0573,–,–,–,–
D161G,–,0.0926,0.0774,0.0524,0.0586,0.0906,0.0694,0.0893,–,–
A170R,–,0.0483,0.0616,–,–,–,–,0.0578,–,–
A170Q,–,0.06,–,–,–,–,–,–,–,–
A170S,–,0.0613,0.0596,–,–,–,0.0601,–,–,–

Variant,area with substrate ENLYFQR,area with substrate ENLYFQS,area with substrate ENLYFQT,area with substrate ENLYFQI,area with substrate ENLYFQW,area with substrate ENLYFQG,area with substrate ENLYFQK,area with substrate ENLYFQY,area with substrate ENLYFQE,area with substrate ENLYFQV
A170I,–,0.059,0.0673,–,–,–,0.0488,–,–,–
A170K,0.0618,0.0605,–,0.0672,0.0461,–,–,–,–,–
A196V,0.0639,0.0951,–,0.087,–,–,–,–,–,0.0648
V165L,0.0537,0.116,–,0.0114,0.0767,–,–,–,–,–
G162N,–,0.096,0.0621,0.0518,–,–,0.0763,0.0753,–,–
Q118C,0.0665,0.0928,0.0539,0.0697,0.0784,0.0788,–,–,–,–
T159V,0.066,0.101,–,–,–,–,0.0526,–,–,–
T115Q,0.0539,0.111,–,0.0659,0.0615,0.103,–,0.0778,–,0.0635
T115R,0.0561,0.117,–,0.0519,0.0596,–,–,0.108,–,–
R109K,0.0573,0.0969,0.0747,–,–,–,–,0.086,–,–
R109Y,–,0.0953,0.0455,–,–,–,–,–,–,0.0472
G138W,–,0.153,–,0.0579,–,–,0.0577,–,–,0.0439
G138F,–,0.106,–,–,0.0476,–,–,–,0.0547,–
G138M,–,0.0929,–,0.0632,–,–,–,–,–,–
T129K,0.0406,0.092,0.0533,–,–,–,0.0417,–,–,0.0604
S135H,–,0.0663,–,0.0686,–,–,–,0.0492,–,–
F163N,–,0.0973,–,–,–,–,–,–,–,0.0516
T114L,–,0.112,0.0637,0.092,0.0852,–,0.0752,0.0945,–,0.0641
E189L,0.0552,0.0944,0.0625,0.0472,0.0721,0.0848,0.0621,–,–,0.0615
